58 molecules from PMC4336329 (PLoS ONE, 2015) can be followed below.

The whole screen tested about 310,000 compounds, of which about 14,000 (4.5%) showed an effect of 50% or more. The effect is printed as a negative number. The list shows a part of the results.
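Note: peak tail current of the secondary pulse compared with the same well before compound.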

Sequence of human ether-à-go-go-related gene (hERG) potassium channel (Q12809 whole entry, looked up): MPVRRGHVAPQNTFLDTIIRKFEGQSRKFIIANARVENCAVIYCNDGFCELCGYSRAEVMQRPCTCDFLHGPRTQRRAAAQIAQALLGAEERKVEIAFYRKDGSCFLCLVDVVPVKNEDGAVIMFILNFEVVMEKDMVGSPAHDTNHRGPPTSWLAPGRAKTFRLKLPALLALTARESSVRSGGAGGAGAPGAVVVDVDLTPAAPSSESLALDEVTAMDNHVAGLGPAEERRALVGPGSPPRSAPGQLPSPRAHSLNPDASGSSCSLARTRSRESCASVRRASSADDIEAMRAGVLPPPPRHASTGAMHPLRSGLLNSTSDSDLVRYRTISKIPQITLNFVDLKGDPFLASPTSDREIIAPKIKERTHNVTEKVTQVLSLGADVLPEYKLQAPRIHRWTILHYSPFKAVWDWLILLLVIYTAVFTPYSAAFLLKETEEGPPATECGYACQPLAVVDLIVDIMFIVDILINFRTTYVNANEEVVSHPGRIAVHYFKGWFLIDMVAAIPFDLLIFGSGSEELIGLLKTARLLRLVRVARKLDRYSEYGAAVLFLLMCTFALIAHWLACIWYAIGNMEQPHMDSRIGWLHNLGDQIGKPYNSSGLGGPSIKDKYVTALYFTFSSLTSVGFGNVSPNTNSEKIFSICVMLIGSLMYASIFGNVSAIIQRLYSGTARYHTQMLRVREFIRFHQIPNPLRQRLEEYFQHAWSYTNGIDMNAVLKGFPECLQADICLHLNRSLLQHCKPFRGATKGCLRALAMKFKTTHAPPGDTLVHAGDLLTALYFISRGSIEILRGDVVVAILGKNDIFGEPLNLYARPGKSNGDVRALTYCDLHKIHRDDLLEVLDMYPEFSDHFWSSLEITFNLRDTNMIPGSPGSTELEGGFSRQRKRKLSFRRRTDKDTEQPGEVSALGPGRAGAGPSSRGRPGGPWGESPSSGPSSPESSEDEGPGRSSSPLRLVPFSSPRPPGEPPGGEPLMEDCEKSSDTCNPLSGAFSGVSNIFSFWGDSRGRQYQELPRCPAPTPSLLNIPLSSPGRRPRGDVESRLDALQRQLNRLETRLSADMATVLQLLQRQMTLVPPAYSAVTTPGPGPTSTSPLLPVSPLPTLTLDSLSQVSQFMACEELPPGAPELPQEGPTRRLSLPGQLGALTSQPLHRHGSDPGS

The assay concerns the target human ether-à-go-go-related gene (hERG) potassium channel (human, UniProt Q12809). Briefly: primary screen, population patch clamp on CHO cells stably expressing hERG.
On to `O=C(Cc1cccs1)NCc1ccncc1`, for which the “hERG current change (%, negative = inhibition) at 10uM” value was determined as 8.62%.

With `CCCN(CCC)CCNC(=O)C1CC(=O)N(c2ccc(OC)cc2)C1c1ccc(OC)cc1` (stereo not shown), the “hERG current change (%, negative = inhibition) at 10uM” value is recorded as -40.7%.

As for `NC(=O)c1c(NC(=O)CN2CCOCC2)sc2c1CCC2`, the “hERG current change (%, negative = inhibition) at 10uM” value is -11.9%.

Regarding `Cc1ccsc1C(=O)N1CCCC(N(C)Cc2ccccc2)C1` (stereo not shown), the “hERG current change (%, negative = inhibition) at 10uM” value is recorded as -13.9%.

In the case of `C=CCn1c(=N)c(C(=O)NCCCOC)cc2c(=O)n3ccccc3nc21`, the “hERG current change (%, negative = inhibition) at 10uM” value is on record as -60.1%.

For the molecule `CC(C)(C)c1nc(SCC(=O)N2CC(=O)Nc3ccccc32)c2ccccc2n1`, the “hERG current change (%, negative = inhibition) at 10uM” value was 42.8%.

As to `O=C(CCOc1ccccc1)N1CCN(S(=O)(=O)c2ccccc2F)CC1`, the “hERG current change (%, negative = inhibition) at 10uM” value was -4.19%.

`CCCCCOc1ccccc1C(=O)NCCCCCC(=O)O`: the “hERG current change (%, negative = inhibition) at 10uM” value is -42.3%.

Turning to `Nc1nc(CN2CCN(c3ccccn3)CC2)nc(Nc2ccc(Cl)cc2)n1`, the “hERG current change (%, negative = inhibition) at 10uM” value is on record as -74.8%.

As for `COC(=O)c1ccccc1OCCOCCOc1cccc2cccnc12`, the “hERG current change (%, negative = inhibition) at 10uM” value is -40.6%.

As to `O=C(CN1CCCCCC1)OCCN=C1NS(=O)(=O)c2ccccc21`, the “hERG current change (%, negative = inhibition) at 10uM” value is 1.76%.

With `CCc1ccc(NC(=O)C(C)Sc2nnc(CN3CCCC3)o2)cc1` (stereo not shown), the “hERG current change (%, negative = inhibition) at 10uM” value is given as 8.15%.

On to `O=C(N/N=C/C=C/c1ccccc1)c1cccc(Br)c1`, for which the “hERG current change (%, negative = inhibition) at 10uM” value is listed as 5.3%.

`COC(=O)Nc1ccc(S(=O)(=O)N2CCCC(C(=O)N3CCC(C)CC3)C2)cc1` (stereo not shown): the “hERG current change (%, negative = inhibition) at 10uM” value is reported as -18.7%.

Take `COc1ccccc1CNc1ccc(N2CCOCC2)c(C(=O)O)c1`: the “hERG current change (%, negative = inhibition) at 10uM” value is recorded as -8.53%.

As for `CCn1c(CSc2nnc(-c3cccnc3)n2-c2ccccc2C)nc2cc(C(=O)O)ccc21.Cl`, the “hERG current change (%, negative = inhibition) at 10uM” value was -13.8%.

Take `CC(C)(C)c1ccc(C(=O)N2CCC(C(=O)NC3CCCCCC3)CC2)cc1`: the “hERG current change (%, negative = inhibition) at 10uM” value is reported as -40%.

Regarding `CCN(CC)CCN=Cc1c(O)n(Cc2ccccc2)c(=O)[nH]c1=O` [14739636], the “hERG current change (%, negative = inhibition) at 10uM” value is -31.3%.

In the case of `CCOCCCNC(=S)N1CCN(Cc2ccco2)CC1.O=C(O)C(=O)O`, the “hERG current change (%, negative = inhibition) at 10uM” value is on record as 17.8%.

On to `Cc1ccc(C(=O)NC2(O)C(=O)c3ccccc3C2=O)cc1C`, for which the “hERG current change (%, negative = inhibition) at 10uM” value was determined as 9.51%.

Consider `COc1ccc(-n2c(CN3CCOCC3)nc3ccccc3c2=O)c(OC)c1`, for which the “hERG current change (%, negative = inhibition) at 10uM” value was found to be 22.9%.

Turning to `COc1ccccc1/C=C/C1=NC(=C\N(C)C)/C(=O)O1`, the “hERG current change (%, negative = inhibition) at 10uM” value is listed as -9.82%.

Regarding `COc1ccc(C2Nc3ccccc3C(=O)N2Cc2ccccc2)cc1Cn1nnc2ccccc21` (stereo not shown), the “hERG current change (%, negative = inhibition) at 10uM” value is given as -25.1%.

Turning to `Cc1ccc(NC(=O)/C(=C\c2ccco2)NC(=O)c2ccco2)cc1`, the “hERG current change (%, negative = inhibition) at 10uM” value is -17.5%.

For the molecule `Cc1cnc(NC(=O)c2ccc3c(c2)C(=O)N(Cc2ccco2)C3=O)s1`, the “hERG current change (%, negative = inhibition) at 10uM” value is -10.9%.

Take `CN(C)/C=N/c1nc2nccc(-c3ccccn3)n2n1`: the “hERG current change (%, negative = inhibition) at 10uM” value is given as 9.16%.

Take `CCSc1nc(C)cc(C)c1S(=O)(=O)c1ccccc1C`: the “hERG current change (%, negative = inhibition) at 10uM” value was determined as 0.0832%.

`CCOC(=O)c1sc(=S)n(CC)c1NC(=O)C1CC1`: the “hERG current change (%, negative = inhibition) at 10uM” value came to 6.93%.

With `COc1ccccc1CNC(=O)CCCOc1cc(=O)n(C)c2ccccc12`, the “hERG current change (%, negative = inhibition) at 10uM” value was determined as 4.57%.

Regarding `CCn1c(SCC(=O)Nc2cc(C)on2)nnc1-c1ccc(OC)cc1`, the “hERG current change (%, negative = inhibition) at 10uM” value is -12.6%.

For `CCOC(=O)CC(NC(=O)c1cc2cccc(OC)c2oc1=O)c1ccc(OC)cc1` (stereo not shown), the “hERG current change (%, negative = inhibition) at 10uM” value is listed as -5.76%.

With `NS(=O)(=O)c1ccc(CNC(=S)NCc2ccc(F)cc2)cc1`, the “hERG current change (%, negative = inhibition) at 10uM” value was determined as 9.61%.

In the case of `CC(C)c1cc(=O)oc2c3c4c(cc12)CCCN4CCC3`, the “hERG current change (%, negative = inhibition) at 10uM” value was -18%.

`Cl.OC(COCc1ccccc1)CN1CCCCC1` (stereo not shown): the “hERG current change (%, negative = inhibition) at 10uM” value amounted to 6.73%.

As to `Cc1nc2ccc(N=NN(C)C)cc2[nH]1`, the “hERG current change (%, negative = inhibition) at 10uM” value is 10.4%.

Consider `O=C(CCn1c(=O)[nH]c2ccccc2c1=O)N1CCN(c2ccc(Cl)cc2)CC1`, for which the “hERG current change (%, negative = inhibition) at 10uM” value is given as -13.1%.

For `COc1cc(C(=O)NCC(=O)OC(C)C(=O)Nc2ncc(Cl)cc2Cl)cc(OC)c1OC` (stereo not shown), the “hERG current change (%, negative = inhibition) at 10uM” value is 8.55%.

As for `C=CCn1c(SCC(=O)c2ccc(OC)cc2)nnc1-c1ccc2c(c1)OCO2`, the “hERG current change (%, negative = inhibition) at 10uM” value is listed as -16.9%.

As for `O=C(O)c1cccc(C(=O)O)c1`, the “hERG current change (%, negative = inhibition) at 10uM” value is listed as 6.31%.

As for `CC(=O)N1CCC(C(=O)OCc2ccc(Cl)cc2)(c2ccccc2)CC1`, the “hERG current change (%, negative = inhibition) at 10uM” value is -10.1%.

For `CN1CCN(C(=O)CSc2cc(=O)n(C)c3ccccc23)CC1`, the “hERG current change (%, negative = inhibition) at 10uM” value was found to be 8.32%.

On to `O=C(NC1CCCCC1)[C@@H]1CSC2c3ccccc3C(=O)N21` (stereo partly shown), for which the “hERG current change (%, negative = inhibition) at 10uM” value is listed as 14.2%.

As for `CCC1(c2ccccc2)C(=O)N(C)C(=O)N(C)C1=O`, the “hERG current change (%, negative = inhibition) at 10uM” value is 10.6%.

On to `CC(C)c1ccc(/C=N/NC(=O)c2ccccc2Cl)cc1`, for which the “hERG current change (%, negative = inhibition) at 10uM” value came out at 6.1%.

In the case of `O=C(O)c1ccc(N2Cc3ccccc3C2)cc1O`, the “hERG current change (%, negative = inhibition) at 10uM” value was 4.44%.

Consider `COc1ccccc1NC(=O)c1cn(C)c(=O)c2cc(OC)c(OC)cc12`, for which the “hERG current change (%, negative = inhibition) at 10uM” value was 4.1%.

In the case of `CC(C)(C)c1ccc(S(=O)(=O)CCc2ccccn2)cc1`, the “hERG current change (%, negative = inhibition) at 10uM” value is -4.21%.

In the case of `N#CCCN(C(=O)COC(=O)CCc1nc2ccccc2c(=O)[nH]1)c1ccccc1F`, the “hERG current change (%, negative = inhibition) at 10uM” value is reported as -3.34%.

In the case of `O=C(COc1coc(CN2CCN(c3ccccc3)CC2)cc1=O)N1CCc2ccccc21`, the “hERG current change (%, negative = inhibition) at 10uM” value is reported as -18.2%.

On to `CCCN(CC1CC1)C(=O)COC(=O)c1oc2c(F)cccc2c1C`, for which the “hERG current change (%, negative = inhibition) at 10uM” value is -52.8%.

With `C/C(=N/NC(=O)C1CC1(c1ccccc1)c1ccccc1)c1cccs1` (stereo not shown), the “hERG current change (%, negative = inhibition) at 10uM” value is reported as 15.5%.

With `O=C(Nc1cccc(S(=O)(=O)N2CCCCC2)c1)c1ccccn1`, the “hERG current change (%, negative = inhibition) at 10uM” value was -9.89%.

With `O=C(NCCCN1CCCC1=O)c1cc(COc2ccc(F)cc2F)on1`, the “hERG current change (%, negative = inhibition) at 10uM” value is given as -8.12%.

Take `N#Cc1c(NCCO)nc(NCc2ccccc2)c2c1CCN(Cc1ccccc1)C2`: the “hERG current change (%, negative = inhibition) at 10uM” value is recorded as -27.1%.

For the molecule `CC(C)n1cc(C(=O)c2ccccc2O)cc(C#N)c1=O`, the “hERG current change (%, negative = inhibition) at 10uM” value turned out to be 18.1%.

Consider `COc1ccc(-n2c(=S)[nH]c3cc(C(=O)Nc4cc(OC)c(OC)c(OC)c4)ccc3c2=O)c(OC)c1`, for which the “hERG current change (%, negative = inhibition) at 10uM” value stood at 21.7%.

Consider `O=C(NCCc1ccccc1)C1CC1`, for which the “hERG current change (%, negative = inhibition) at 10uM” value stood at 24.2%.

Take `Cc1ccccc1CNC(=O)C(=O)NCC1OCCCN1S(=O)(=O)c1ccc(F)cc1C` (stereo not shown): the “hERG current change (%, negative = inhibition) at 10uM” value was 7.36%.
